# Results from PubChem BioAssay (NCATS).
# The inconclusive results got no clear call from the source; some entries with a clear call stand among them for comparison. For some of these results: Where the call is inconclusive, the potency comes from a doubtful curve fit. Calls of active or inactive are those of the source. Calls come from the whole dose curve; as a rule, active = well fitted curve in the direction sought with a large enough effect; inconclusive = small, poorly fitted or top-dose-only effect, or another doubt; inactive = no such curve, though single readings can be large; an effect the other way counts as inactive or inconclusive.
# Assays:
# [1] = target: Rap guanine nucleotide exchange factor 3 (Homo sapiens) (UniProt O95398); experiment: Confirmatory qHTS for antagonist of cAMP-regulated guanine nucleotide exchange factor 3 (EPAC1) (AID 1645880); settings: EPAC1 Rap1B-BODIPY-GDP exchange, fluorescence; activity, negative = inhibition: at 115 µM (top of the series); note: nearly all actives have a fitted effect of over 55% in size;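 for activity, negative = inhibition: plate controls were DMSO only for no effect and full effect of the ATA control for full effect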
# Procedure, shortened: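 Nucleotide exchange uses 100 nM EPAC1, 250 nM RAP1B-BODIPY-GDP and 50 uM GDP, with compounds in a concentration-titration series. After 5 min at room temperature, fluorescence (480 nm ex/540 nm em) is read every 5 min for 30 min. Data are normalized to control ATA and DMSO.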
# [2] = target: Rap guanine nucleotide exchange factor 4 (Homo sapiens) (UniProt Q8WZA2); experiment: Confirmatory qHTS for antagonist of cAMP-regulated guanine nucleotide exchange factor 4 (EPAC2) (AID 1645885); settings: activity change, negative = inhibition: at 12.7 µM (top of the series) unless noted; note: nearly all actives have a fitted effect of over 25% in size; for activity change, negative = inhibition: % is set by controls: 0 for no effect and ±100 for the full control effect
# [3] = target: Rap guanine nucleotide exchange factor 3 (Homo sapiens) (UniProt O95398); experiment: Counterscreen qHTS for agonist of cAMP-regulated guanine nucleotide exchange factor 3 (EPAC1) (AID 1645889); settings: EPAC1 Rap1B-BODIPY-GDP exchange, fluorescence; activation: at 154 µM (top of the series) unless noted; note: nearly all actives have a fitted effect of over 40% in size; for activation: % of control where 0% means no effect
# Procedure, shortened: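 Rap1B-BODIPY-GDP 250 nM + GDP 50 uM; cpds 7-pt, final 9.74 nM–152 uM (activator mode) or from 7.32 nM upwards (inhibitor mode); RT; FI 480/540 nm at 5 and 30 min, then ± cAMP, reread.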
# [4] = target: DNA repair nuclease/redox regulator APEX1 (Homo sapiens) (UniProt P27695); experiment: Confirmation qHTS Assay for Inhibitors of the Human Apurinic/apyrimidinic Endonuclease 1 (APE1) (AID 2572); note: nearly all actives have a fitted effect of over 30% in size
# Procedure, shortened: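 15 min RT compound–APE1 preincubation → add 50 nM final THF-abasic TAMRA/BHQ-2 dsDNA → immediate kinetic read, 3 × 60 s, Ex 525/Em 598 → Δ fluorescence (read 3 − read 1).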
# [5] = target: DNA repair nuclease/redox regulator APEX1 (Homo sapiens) (UniProt P27695); experiment: qHTS FP-Based Assay for Inhibitors of the Human Apurinic/apyrimidinic Endonuclease 1 (APE1) (AID 2573)
# [6] = target: DNA polymerase eta (Homo sapiens) (UniProt Q9Y253); experiment: qHTS for Inhibitors of Polymerase Eta: Confirmatory Assay for Cherry-picked Compounds (AID 720502); settings: Pol eta primer extension, TAMRA/BHQ fluorescence, 10 min
# Procedure, shortened: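 The reaction starts with 50 nM final labeled DNA substrate added to Pol eta (10 nM) that had sat with compound for 15 min. TAMRA emission at 598 nm is read at 0 and 10 min.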
# [7] = qHTS Assay for Inhibitors of Fructose-1,6-bisphosphate Aldolase from Giardia Lamblia: Giardia lamblia growth inhibition (AID 2785); settings: Giardia lamblia trophozoite growth inhibition; activity change, negative = inhibition: at 38.3 µM (top of the series) unless noted; note: nearly all actives have a fitted effect of over 70% in size
# Procedure, shortened: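 Whole-parasite growth test: Giardia WB trophozoites in TYI-S-33 (pH 7.0), 100 per well, incubated 48 h at 37C with compound. ATP content was read by ATPlite luminescence.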
# [8] = target: Fructose-bisphosphate aldolase (Giardia intestinalis (strain ATCC 50803 / WB clone C6)) (UniProt A8B2U2); experiment: qHTS Assay for Inhibitors of Fructose-1,6-bisphosphate Aldolase from Giardia Lamblia: Primary screen confirmation (AID 2787); note: nearly all actives have a fitted effect of over 45% in size
# Procedure, shortened: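 Confirmation of primary hits by qHTS up to 57.5 uM final compound. Enzyme at 40 nM with 30 uM ZnCl2, 10 min RT pre-incubation, then substrate/coupling/resorufin-forming detection mix for 20 min before fluorescence read at 525/598 nm.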
# [9] = target: Fructose-bisphosphate aldolase A (Oryctolagus cuniculus) (UniProt P00883); experiment: qHTS Assay for Inhibitors of Fructose-1,6-bisphosphate Aldolase from Giardia Lamblia: Rabbit FBPA Selectivity (AID 2794); note: nearly all actives have a fitted effect of over 60% in size
# Procedure, shortened: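 To triage Class I aldolase inhibitors, rabbit FBPA activity is followed through a glyceraldehyde-3-phosphate-linked enzyme cascade feeding AmpLite Red. Compounds (up to 57.5 uM final) sit 10 min with coupling enzymes before substrate; fluorescence is read 20 min later.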
# [10] = qHTS Assay for Inhibitors of Fructose-1,6-bisphosphate Aldolase from Giardia Lamblia: Coupling assay counterscreen confirmation (AID 2795); note: nearly all actives have a fitted effect of over 55% in size
# Procedure, shortened: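 Setup: coupling enzyme reagent, compound pin-transferred to up to 57.5 uM final. Incubation: 10 min RT, then substrate + AmpLite Red for 20 min RT. Detection: fluorescence 525/598 nm.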
# [11] = qHTS for Inhibitors of the vitamin D receptor (VDR): Hit Validation using a Texas Red Assay (AID 602201)
# Procedure, shortened: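 After a 2-hour room-temperature incubation, polarization of Texas-Red emission was read (Ex 595 nm/Em 615 nm). Final mix contained 7 nM Texas Red, 1.5 uM VDR-LBD and LG19078.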
# Potency is the fitted concentration of half-maximal effect; tags give direction and shape of the fitted curve.
# UniProt P27695, sequence (P27695 whole entry, looked up): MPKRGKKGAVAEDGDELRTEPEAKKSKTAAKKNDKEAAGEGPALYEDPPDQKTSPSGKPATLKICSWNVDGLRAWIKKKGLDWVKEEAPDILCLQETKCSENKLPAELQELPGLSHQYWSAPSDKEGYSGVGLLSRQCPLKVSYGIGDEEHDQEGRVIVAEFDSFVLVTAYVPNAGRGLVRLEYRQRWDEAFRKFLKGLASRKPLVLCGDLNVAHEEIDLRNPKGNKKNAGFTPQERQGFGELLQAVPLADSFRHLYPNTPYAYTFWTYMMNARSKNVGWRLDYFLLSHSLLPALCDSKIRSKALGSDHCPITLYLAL
# UniProt O95398, sequence (O95398 whole entry, looked up): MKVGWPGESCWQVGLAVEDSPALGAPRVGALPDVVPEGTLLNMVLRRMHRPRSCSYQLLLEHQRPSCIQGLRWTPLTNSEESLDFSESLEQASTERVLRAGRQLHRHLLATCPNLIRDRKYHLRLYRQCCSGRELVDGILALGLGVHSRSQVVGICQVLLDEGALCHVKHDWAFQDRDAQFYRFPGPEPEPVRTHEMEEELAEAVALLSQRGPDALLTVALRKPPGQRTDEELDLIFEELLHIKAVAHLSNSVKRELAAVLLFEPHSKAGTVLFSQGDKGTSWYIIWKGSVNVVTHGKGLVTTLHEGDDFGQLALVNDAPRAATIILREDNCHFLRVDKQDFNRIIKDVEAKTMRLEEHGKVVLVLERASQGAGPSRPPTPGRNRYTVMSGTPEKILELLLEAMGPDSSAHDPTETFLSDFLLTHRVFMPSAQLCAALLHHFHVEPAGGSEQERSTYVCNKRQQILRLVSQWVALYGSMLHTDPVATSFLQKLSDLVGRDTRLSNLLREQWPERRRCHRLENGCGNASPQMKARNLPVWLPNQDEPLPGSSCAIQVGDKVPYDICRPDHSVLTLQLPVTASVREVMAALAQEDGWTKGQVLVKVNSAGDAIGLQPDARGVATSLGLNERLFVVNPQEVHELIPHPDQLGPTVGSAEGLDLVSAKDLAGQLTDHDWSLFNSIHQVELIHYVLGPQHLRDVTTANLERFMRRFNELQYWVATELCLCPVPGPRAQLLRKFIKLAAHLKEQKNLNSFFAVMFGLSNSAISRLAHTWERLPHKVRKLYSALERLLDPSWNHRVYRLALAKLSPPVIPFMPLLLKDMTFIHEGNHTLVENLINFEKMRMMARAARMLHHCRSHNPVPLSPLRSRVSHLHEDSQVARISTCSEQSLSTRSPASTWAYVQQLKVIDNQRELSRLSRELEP
# UniProt Q8WZA2, sequence (Q8WZA2 whole entry, looked up): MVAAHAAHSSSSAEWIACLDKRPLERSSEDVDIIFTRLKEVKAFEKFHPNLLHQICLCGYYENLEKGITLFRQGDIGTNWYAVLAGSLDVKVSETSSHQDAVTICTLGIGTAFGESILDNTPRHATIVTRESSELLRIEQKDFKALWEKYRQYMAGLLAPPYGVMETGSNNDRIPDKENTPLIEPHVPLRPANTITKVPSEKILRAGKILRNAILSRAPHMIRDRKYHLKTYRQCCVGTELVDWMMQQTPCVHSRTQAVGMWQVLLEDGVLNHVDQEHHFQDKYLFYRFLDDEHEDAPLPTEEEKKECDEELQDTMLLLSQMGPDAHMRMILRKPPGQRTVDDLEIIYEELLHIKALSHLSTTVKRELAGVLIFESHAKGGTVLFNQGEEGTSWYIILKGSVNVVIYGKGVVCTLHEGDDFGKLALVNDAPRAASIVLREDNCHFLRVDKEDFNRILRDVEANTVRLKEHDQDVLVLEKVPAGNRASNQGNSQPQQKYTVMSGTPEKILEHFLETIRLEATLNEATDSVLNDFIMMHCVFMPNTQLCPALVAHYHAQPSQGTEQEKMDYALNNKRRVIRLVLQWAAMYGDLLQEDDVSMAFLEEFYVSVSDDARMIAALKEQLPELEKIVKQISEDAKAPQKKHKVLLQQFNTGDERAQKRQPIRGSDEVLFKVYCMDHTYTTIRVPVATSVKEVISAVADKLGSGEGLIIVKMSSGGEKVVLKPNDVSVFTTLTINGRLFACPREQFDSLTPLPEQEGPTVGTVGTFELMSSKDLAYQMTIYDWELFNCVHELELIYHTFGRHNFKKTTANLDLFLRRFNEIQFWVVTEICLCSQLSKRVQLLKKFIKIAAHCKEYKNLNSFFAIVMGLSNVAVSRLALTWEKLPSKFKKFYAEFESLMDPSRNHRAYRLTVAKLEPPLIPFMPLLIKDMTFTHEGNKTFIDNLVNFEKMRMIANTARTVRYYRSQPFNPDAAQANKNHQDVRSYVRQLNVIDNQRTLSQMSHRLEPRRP
# UniProt P00883, sequence (P00883 whole entry, looked up): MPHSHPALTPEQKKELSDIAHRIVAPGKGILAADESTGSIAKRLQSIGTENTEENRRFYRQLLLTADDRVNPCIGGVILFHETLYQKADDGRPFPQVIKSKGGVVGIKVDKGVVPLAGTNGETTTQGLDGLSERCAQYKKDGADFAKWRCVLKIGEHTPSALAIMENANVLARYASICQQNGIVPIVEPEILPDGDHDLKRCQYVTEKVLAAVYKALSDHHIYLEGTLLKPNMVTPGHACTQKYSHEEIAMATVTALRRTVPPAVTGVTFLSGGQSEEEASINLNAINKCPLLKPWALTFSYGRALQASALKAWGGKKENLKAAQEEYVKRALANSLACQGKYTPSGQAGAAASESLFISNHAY
# UniProt A8B2U2, sequence (A8B2U2 whole entry, looked up): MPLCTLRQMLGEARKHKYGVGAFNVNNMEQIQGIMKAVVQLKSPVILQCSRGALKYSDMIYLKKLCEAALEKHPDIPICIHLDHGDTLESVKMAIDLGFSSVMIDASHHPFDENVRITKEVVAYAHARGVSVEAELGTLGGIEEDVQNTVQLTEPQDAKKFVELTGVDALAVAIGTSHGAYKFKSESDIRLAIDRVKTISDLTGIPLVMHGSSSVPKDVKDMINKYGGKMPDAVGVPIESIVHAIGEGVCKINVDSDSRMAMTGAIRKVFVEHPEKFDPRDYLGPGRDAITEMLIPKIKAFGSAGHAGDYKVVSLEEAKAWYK
# UniProt Q9Y253, sequence (Q9Y253 whole entry, looked up): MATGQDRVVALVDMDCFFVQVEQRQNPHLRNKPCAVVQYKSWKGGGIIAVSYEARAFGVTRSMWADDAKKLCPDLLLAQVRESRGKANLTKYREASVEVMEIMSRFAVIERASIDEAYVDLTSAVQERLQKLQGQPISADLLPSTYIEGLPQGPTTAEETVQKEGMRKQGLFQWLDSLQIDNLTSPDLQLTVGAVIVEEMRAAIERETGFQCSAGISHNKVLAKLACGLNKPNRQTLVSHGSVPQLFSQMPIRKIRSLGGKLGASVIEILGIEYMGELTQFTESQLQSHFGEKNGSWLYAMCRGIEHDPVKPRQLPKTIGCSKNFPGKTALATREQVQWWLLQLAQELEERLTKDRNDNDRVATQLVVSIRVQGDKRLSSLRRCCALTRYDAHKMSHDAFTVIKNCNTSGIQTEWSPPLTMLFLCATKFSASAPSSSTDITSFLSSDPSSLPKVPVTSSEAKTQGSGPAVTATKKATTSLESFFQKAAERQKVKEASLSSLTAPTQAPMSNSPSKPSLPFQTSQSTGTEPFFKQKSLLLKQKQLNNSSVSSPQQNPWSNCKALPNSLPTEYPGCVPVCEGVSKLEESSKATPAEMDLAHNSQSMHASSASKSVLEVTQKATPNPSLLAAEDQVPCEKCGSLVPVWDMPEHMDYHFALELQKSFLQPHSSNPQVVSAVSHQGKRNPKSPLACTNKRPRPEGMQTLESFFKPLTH
smiles,measurement,setting,value
CCOc1cc(C)c(-c2onc(C(F)(F)F)c2-c2csc(C)n2)c(O)c1,Potency,[1],"inconclusive: 37.9 µM [inhibitor, partial curve]"
same,Potency,[2],"inconclusive: 33.8 µM [inhibitor, full curve]"
same,Potency,[3],inactive
COc1ccc(C2C=C(c3ccccc3)Nc3nnnn32)cc1 (stereo not drawn),Potency,[1],inactive
same,Potency,[2],inactive
same,Potency,[3],"inconclusive: 0.0282 µM [activator, full curve, poor fit]"
O=S(=O)(c1cc(C(F)(F)F)ccc1Cl)N1CCN(c2ncnc3ccccc23)CC1,Potency,[1],"inconclusive: 67.5 µM [inhibitor, partial curve, poor fit]"
same,Potency,[2],"inconclusive: 37.9 µM [inhibitor, partial curve]"
same,Potency,[3],inactive
COc1ccc(-c2sc3ccc(OC)cc3c2C#CCCO)cc1,Potency,[1],"inconclusive: 67.5 µM [inhibitor, partial curve, poor fit]"
same,Potency,[2],"inconclusive: 2.13 µM [inhibitor, partial curve, poor fit]"
same,Potency,[3],"inconclusive: 39.8 µM [activator, single point]"
CCOC(=O)Cn1nc(C)c(NC(=O)COc2ccccc2[N+](=O)[O-])c1C,Potency,[1],"inconclusive: 0.398 µM [inhibitor, full curve, poor fit]"
same,Potency,[2],"inconclusive: 0.0213 µM [inhibitor, full curve, poor fit]"
same,activation,[3],inactive: 2.17% [at 30.8 µM]
Cn1c(N)c(C(=O)COC(=O)COc2ccccc2C#N)c(=O)n(C)c1=O,Potency,[1],inactive
same,Potency,[2],inactive
same,activation,[3],inactive: 3.75% [at 30.8 µM]
O=C(Nc1ccc2nc3n(c(=O)c2c1)CCCCC3)c1c(F)ccc([N+](=O)[O-])c1F,Potency,[1],active: 15.1 µM
same,Potency,[2],"inconclusive: 84.9 µM [inhibitor, single point]"
same,Potency,[3],inactive
Clc1cccc(-c2nc3ccc(Cl)cn3c2Cc2ccsc2)c1,Potency,[1],"inconclusive: 75.7 µM [inhibitor, partial curve]"
same,Potency,[2],"inconclusive: 53.6 µM [inhibitor, partial curve, poor fit]"
same,activation,[3],inconclusive: 27.6% [activator]
Cc1cccc(N(C(=O)c2csnn2)C(C(=O)NCc2ccccc2)c2cccs2)c1 (stereo not drawn),Potency,[1],inactive
same,Potency,[2],"inconclusive: 53.6 µM [inhibitor, partial curve]"
same,Potency,[3],"inconclusive: 6.31 µM [activator, partial curve, poor fit]"
O=C(Nc1nc(-c2ccc(F)cc2)cs1)C1CCN(C(=O)c2ccc(F)cc2)CC1,Potency,[1],"inconclusive: 30.1 µM [inhibitor, partial curve]"
same,Potency,[2],"inconclusive: 37.9 µM [inhibitor, partial curve, poor fit]"
same,activation,[3],inconclusive: 19.2% [activator]
CC(C)(C)NC(=O)C(c1ccc(C#N)cc1)n1c(=O)c(-c2ccco2)nc2ccccc21 (stereo not drawn),Potency,[1],"inconclusive: 75.7 µM [inhibitor, partial curve]"
same,Potency,[2],inactive
same,Potency,[3],inactive
O=C(O)c1cccc(Nc2ccc([N+](=O)[O-])c3nonc23)c1,Potency,[1],"inconclusive: 47.8 µM [inhibitor, partial curve]"
same,Potency,[2],inactive
same,Potency,[3],inactive
COc1ccc(Cl)cc1-n1c(=S)sc2c(=O)[nH]c(SCC(=O)NCCC(C)C)nc21,Potency,[1],active: 15.1 µM
same,Potency,[2],inactive
same,Potency,[3],inactive
COc1ccc(OC)c(NC2c3ccccc3C(=O)N2c2cccnc2)c1 (stereo not drawn),Potency,[1],inactive
same,Potency,[2],"inconclusive: 84.9 µM [inhibitor, single point]"
same,Potency,[3],inactive
Cc1cc(Br)cc(Cl)c1OC(=O)c1ccncc1,Potency,[1],"inconclusive: 95.3 µM [inhibitor, partial curve, poor fit]"
same,Potency,[2],active: 37.9 µM
same,Potency,[3],inactive
COc1ccc(-c2nn(-c3ccccc3)cc2/C=C2/SC(=S)N(CCCC(=O)O)C2=O)c(C)c1,Potency,[1],"inconclusive: 67.5 µM [inhibitor, partial curve]"
same,Potency,[2],"inconclusive: 37.9 µM [inhibitor, partial curve, poor fit]"
same,Potency,[3],inactive
CC(=O)c1ccc(NC(=O)c2ccc3c(c2)C(=O)N(c2ccccn2)C3=O)cc1,Potency,[1],active: 8.49 µM
same,Potency,[2],"inconclusive: 0.239 µM [inhibitor, full curve, poor fit]"
same,activation,[3],inconclusive: 36.6% [activator]
CCN(CC1COc2ccccc2O1)C(=O)CN1C(=O)NC(C)(c2ccc(C)cc2)C1=O (stereo not drawn),Potency,[1],inactive
same,Potency,[2],"inconclusive: 95.3 µM [inhibitor, single point]"
same,Potency,[3],"inconclusive: 20 µM [activator, single point]"
CCOc1ccc(C(=O)NCC(=O)Nc2ncccc2C)cc1OCC,Potency,[1],inactive
same,"activity change, negative = inhibition",[2],inconclusive: -43.3% [inhibitor] [at 114 µM]
same,Potency,[3],inactive
Cc1ccc(C(NC(=O)C(C)C)c2cc([N+](=O)[O-])c3cccnc3c2O)cc1 (stereo not drawn),Potency,[1],active: 35.5 µM
same,Potency,[2],inactive
same,Potency,[3],"inconclusive: 12.6 µM [activator, partial curve]"
COc1ccc(NC(=O)c2cc(-c3ccco3)nc3ccccc23)cc1S(=O)(=O)N1CCOCC1,Potency,[4],active: 12.6 µM
same,Potency,[5],"inconclusive: 10 µM [inhibitor, partial curve, poor fit]"
same,Potency,[6],active: 16.9 µM
same,Potency,[1],active: 9.53 µM
same,Potency,[2],"inconclusive: 4.78 µM [inhibitor, partial curve, poor fit]"
same,Potency,[3],"inconclusive: 0.0794 µM [activator, full curve, poor fit]"
C[n+]1cccc2c(Br)ccc([O-])c21,Potency,[7],active: 20 µM
same,Potency,[8],active: 3.98 µM
same,Potency,[9],active: 12.6 µM
same,Potency,[10],active: 4.47 µM
same,Potency,[1],"inconclusive: 23.9 µM [inhibitor, full curve]"
same,Potency,[2],"inconclusive: 67.5 µM [inhibitor, partial curve, poor fit]"
same,Potency,[3],"inconclusive: 11.2 µM [activator, partial curve]"
Cc1oc2c(c1C(=O)c1ccccc1)C(=O)C(=O)c1ccccc1-2,Potency,[11],active: 3.98 µM
same,Potency,[1],active: 42.6 µM
same,Potency,[2],"inconclusive: 33.8 µM [inhibitor, full curve]"
same,Potency,[3],"inconclusive: 15.8 µM [activator, partial curve, poor fit]"
Cc1ccc(CN(C(=O)COc2cc(C)c(Cl)c(C)c2)c2ccccn2)o1,Potency,[1],"inconclusive: 75.7 µM [inhibitor, partial curve]"
same,Potency,[2],inactive
same,Potency,[3],inactive
CCc1ccc([C@@H]2CC=C(C(=O)O)[C@H](c3ccc(Br)cc3)N2S(=O)(=O)c2ccc(C)cc2)cc1,Potency,[1],active: 17.8 µM
same,Potency,[2],"inconclusive: 5.36 µM [inhibitor, partial curve]"
same,Potency,[3],"inconclusive: 0.562 µM [activator, full curve, poor fit]"
Brc1ccc(N/N=C(/N=Nc2nn[nH]n2)c2ccccc2)cc1,Potency,[1],active: 33.8 µM
same,Potency,[2],inactive
same,Potency,[3],inactive
CCOc1cc(S(=O)(=O)Nc2ccccc2CC)ccc1Cl,Potency,[1],"inconclusive: 56.2 µM [inhibitor, partial curve, poor fit]"
same,Potency,[2],"inconclusive: 4.78 µM [inhibitor, partial curve, poor fit]"
same,Potency,[3],"inconclusive: 20 µM [activator, single point]"
COc1ccc(C2CC(=O)c3ccccc3O2)cc1 (stereo not drawn),Potency,[1],inactive
same,Potency,[2],"inconclusive: 47.8 µM [inhibitor, partial curve]"
same,Potency,[3],inactive
COc1ccc(N2CCN(C(=O)COC(=O)COc3cc(C)cc(C)c3)CC2)cc1,Potency,[1],inactive
same,Potency,[2],inactive
same,activation,[3],inactive: -0.0753% [at 30.8 µM]
O=C(CC1C[C@H](C(=O)N2CCCCC2)[C@@]2(CCc3ccccc3)c3[nH]c4ccccc4c3CCN2C1=O)NCCCn1ccnc1 (stereo partly drawn),Potency,[1],"inconclusive: 84.9 µM [inhibitor, partial curve]"
same,Potency,[2],"inconclusive: 67.5 µM [inhibitor, partial curve, poor fit]"
same,Potency,[3],inactive
O=C1/C(=C/C=C/c2ccco2)SC(=S)N1NS(=O)(=O)c1ccccc1,Potency,[4],active: 3.55 µM
same,Potency,[5],"inconclusive: 17.8 µM [inhibitor, partial curve, poor fit]"
same,Potency,[1],active: 5.62 µM
same,Potency,[2],inactive
same,Potency,[3],"inconclusive: 0.891 µM [activator, full curve]"
CCOc1ccccc1NC(=O)CN1C(=O)COc2ccc(S(=O)(=O)NC3CCCC3)cc21,Potency,[1],"inconclusive: 84.9 µM [inhibitor, single point]"
same,outcome,[2],inactive [at 12.7 µM]
same,Potency,[3],"inconclusive: 28.2 µM [activator, partial curve]"
C=CCn1c(-c2ccc(S(=O)(=O)N3CCOCC3)cc2)csc1=Nc1ccccc1,Potency,[1],inactive
same,Potency,[2],inactive
same,activation,[3],inconclusive: 45.6% [activator]
COc1ccc(/C=N/NC(=O)c2[nH]c3ccc(Br)cc3c2-c2ccccc2)c(C(=O)O)c1OC,Potency,[1],"inconclusive: 44.7 µM [inhibitor, partial curve]"
same,Potency,[2],inactive
same,Potency,[3],"inconclusive: 0.282 µM [activator, full curve, poor fit]"
CC(C)n1nccc1N(Cc1ccc(Cl)cc1)S(=O)(=O)c1ccccc1,Potency,[1],"inconclusive: 37.9 µM [inhibitor, partial curve, poor fit]"
same,Potency,[2],"inconclusive: 67.5 µM [inhibitor, partial curve]"
same,Potency,[3],"inconclusive: 10 µM [activator, partial curve, poor fit]"
Cc1cc(C)c2nc(N3C(=O)C(O)=C(C(=O)c4ccco4)C3c3cccc(O)c3)sc2c1 (stereo not drawn),Potency,[1],active: 26.9 µM
same,Potency,[2],"inconclusive: 33.8 µM [inhibitor, partial curve, poor fit]"
same,Potency,[3],inactive
